Assay results taken from PubChem BioAssay AID360 (National Center for Advancing Translational Sciences (NCATS), 2006).
The campaign covered roughly 48,000 compounds. About 550 (1.1%) were called active. Another 4% or so got no clear call; they are omitted. Rule as the data show it: active = potency below about 15 µM; inconclusive = mostly about 16 µM to 33 µM; inactive = weaker than that. Some of the results follow.

Each compound was assayed against Lysosomal acid glucosylceramidase (Homo sapiens) (UniProt P04062) (assay: Glucocerebrosidase). Conditions: purified enzyme, resorufin glucoside fluorescence (screen aimed at inhibitors), 20 min.
Summary of the method: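 Wild-type enzyme at 0.2 nM final in 50mM citric acid/KH2PO4, 10mM sodium taurocholate, 0.01% tween-20, pH 5.9, with resorufin beta-D-glucopyranoside at 30 uM final. Compounds titrated, 20 min at RT, red fluorescence read; AC50 from titration.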
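Also: the screen sought inhibitors.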
Potency is read from the fitted curve at half-maximal effect.

Chain of UniProt P04062 (P04062 whole entry, looked up): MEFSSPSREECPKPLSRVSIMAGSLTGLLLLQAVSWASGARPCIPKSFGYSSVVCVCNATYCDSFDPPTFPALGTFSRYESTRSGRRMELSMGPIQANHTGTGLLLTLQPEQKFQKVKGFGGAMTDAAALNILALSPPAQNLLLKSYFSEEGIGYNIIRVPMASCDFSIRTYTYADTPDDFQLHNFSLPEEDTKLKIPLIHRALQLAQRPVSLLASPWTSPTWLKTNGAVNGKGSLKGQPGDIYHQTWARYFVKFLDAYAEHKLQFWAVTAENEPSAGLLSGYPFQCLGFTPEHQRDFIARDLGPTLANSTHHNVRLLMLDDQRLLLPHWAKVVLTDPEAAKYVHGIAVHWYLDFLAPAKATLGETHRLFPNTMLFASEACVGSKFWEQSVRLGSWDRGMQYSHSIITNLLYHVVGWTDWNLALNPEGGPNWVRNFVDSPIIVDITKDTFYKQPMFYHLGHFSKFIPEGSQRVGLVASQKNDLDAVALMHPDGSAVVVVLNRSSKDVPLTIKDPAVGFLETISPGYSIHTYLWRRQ

Potency, inactive:
CCCn1c(NCc2cc(OC)ccc2OC)nc2ccccc21 > 76.9 µM
O=C(COc1ccc2oc3c(c2c1)CCCC3)Nc1ccccn1 > 76.9 µM
CCN(CC)S(=O)(=O)c1ccc2oc(C(=O)O)c(C)c2c1 > 76.9 µM
Cn1c(=O)oc2cc(S(=O)(=O)N3CCC4(CC3)OCCO4)ccc21 > 76.9 µM
CCCN(Cc1ccccc1)S(=O)(=O)c1ccc(N2C(=O)CCC2=O)cc1 > 76.9 µM
C=CCn1c(SCc2cc(=O)n3ccsc3n2)nnc1C1CCCCC1 > 76.9 µM
COc1ccc(OC)c(-n2cc3c(=O)n(C)c(=O)n(C)c3c2)c1 > 76.9 µM
COc1cc(C(=O)Nc2nc(OC)c(-c3ccccc3)c(OC)n2)cc(OC)c1OC > 76.9 µM
COc1ccc(OC)c(S(=O)(=O)Nc2ccccc2SC)c1 > 76.9 µM
CCC(Sc1nc2cc3c(cc2c(=O)n1Cc1ccco1)OCO3)C(=O)Nc1ccccc1OC (stereo not drawn) > 76.9 µM
O=S(=O)(Nc1cccc2ccccc12)N1CCCC1 > 76.9 µM
COc1ccccc1N1CCN(c2nc(N)c(C#N)c(CC#N)c2C#N)CC1 > 76.9 µM
O=C(Nc1ccc2c(c1)CCC2)C1CCCN(c2ncccn2)C1 (stereo not drawn) > 76.9 µM
Cc1oc(CC(C)C)c(CN2CCCC2)c1C(=O)O > 76.9 µM
Cc1nn(S(=O)(=O)N(C)C)c(C)c1CN1C(=O)c2ccccc2C1=O > 76.9 µM
O=C1c2cccnc2C(O)N1Cc1ccc(F)cc1 (stereo not drawn) > 76.9 µM
Cc1ccc(S(=O)(=O)N2CCC(C(=O)N3CCC[C@H]3C(=O)NCc3ccccc3)CC2)cc1 > 76.9 µM
COc1cc(OC)c(C(=O)Nc2ccc(N(C)C)cc2)cc1OC > 76.9 µM
Cc1ccccc1-n1c(=O)c2ccccc2n2nnnc12 > 76.9 µM
O=C(CSc1nnc(-c2ccccc2Cl)n1Cc1ccco1)Nc1ccc2c(c1)OCCO2 > 76.9 µM
Cc1ccc(S(=O)(=O)NCC(=O)OC2CCOC2=O)cc1 (stereo not drawn) > 76.9 µM
CCn1c(SCC(=O)n2nc(C)cc2C)nnc1-c1ccc2c(c1)OCO2 > 76.9 µM
CCOC(=O)Cn1c(CN(C)Cc2ccccc2)nc2c1c(=O)n(C)c(=O)n2C > 76.9 µM
COc1ccc(-n2c(SCC(=O)NCC3CCCO3)nc3n[nH]c(C)c3c2=N)cc1 (stereo not drawn) > 76.9 µM
CC(C)c1nc(=S)c2ccccc2[nH]1 > 76.9 µM
Nn1c(SCC(=O)Nc2ccc(F)c(F)c2)nnc1C1CCCCC1 > 76.9 µM
Cc1ccccc1Cn1c(CN2CCc3ccccc3C2)nc2c1c(=O)n(C)c(=O)n2C > 76.9 µM
Cc1ccc(NC(=O)c2cc(N(C)C)ccc2[P+](=O)O)cc1 > 76.9 µM
Cn1c(=O)c2c(nc(Sc3n[nH]c(N)n3)n2Cc2ccccc2Cl)n(C)c1=O > 76.9 µM
COc1ccc(C2(C(=O)Nc3c(C)n(C)n(-c4ccccc4)c3=O)CCCC2)cc1OC > 76.9 µM
Cc1ccc2nc(-c3ccccc3Cl)cc(C(=O)Nc3cc(C)on3)c2c1 > 76.9 µM
COc1ccc(C(C#N)N2CCCCC2)cc1OC (stereo not drawn) > 76.9 µM
CCn1c(=N)c(C(=O)OC)cc2c(=O)n3ccccc3nc21 > 76.9 µM
COC(=O)c1ccc(Oc2nc(NC(C)C)nc(N(C)C)n2)cc1 > 76.9 µM
O=C(CCc1ccccc1)Nc1nc2n(n1)C(c1ccc(Cl)cc1)CC(=O)N2 (stereo not drawn) > 76.9 µM
O=C(NC1CCCCC1)C(c1ccco1)N(Cc1ccco1)C(=O)c1ccco1 (stereo not drawn) > 76.9 µM
O=C(Cn1nc(C(F)(F)F)c2c1CCCC2)NCCN1CCOCC1 > 76.9 µM
COc1cccc(C2CC(c3ccccc3)Nc3ncnn32)c1 (stereo not drawn) > 76.9 µM
CCn1c(=N)c(C(=O)NC)cc2c(=O)n3cccc(C)c3nc21 > 76.9 µM
CC(C)(C)c1cc(NC(=O)COC(=O)C2CC2)n(-c2ccccc2)n1 > 76.9 µM
O=C(C1CC1)N1CCc2cc(Br)cc(S(=O)(=O)NCc3ccccn3)c21 > 76.9 µM
c1ccc(-n2c(-c3ccco3)nnc2N2CCOCC2)cc1 > 76.9 µM
Cn1c(SC/C=C/c2ccccc2)nnc1-c1cnccn1 > 76.9 µM
O=C(CSc1nnnn1C1CCCCC1)Nc1cccc(NC(=O)c2ccco2)c1 > 76.9 µM
CCOC(=O)c1oc2ccccc2c1CSc1nnnn1-c1ccc(OC)cc1 > 76.9 µM
O=C1N(CCCN2C(=O)C3(OCCO3)c3ccccc32)c2ccccc2C12OCCO2 > 76.9 µM
Cc1ccccc1Cn1nc(C)c(NC(=O)c2cc3n(n2)C(C(F)F)CC(C(F)F)N3)c1C (stereo not drawn) > 76.9 µM
Nc1nncn1C(=O)CCc1ccccc1 > 76.9 µM
O=c1oc2ccccc2c(O)c1/C=N/c1ccccn1 > 76.9 µM
Fc1ccc2nc3n(c2c1F)CCCCCC3 > 76.9 µM
O=C(Nc1nc(-c2ccccc2)cs1)C1CCCO1 (stereo not drawn) > 76.9 µM
CC(C)N(C(=O)NC(=O)NCC1CCCO1)S(C)(=O)=O (stereo not drawn) > 76.9 µM
CN(C)S(=O)(=O)Nc1ccc(Br)cc1F > 76.9 µM
CCCn1c(NCc2ccco2)nc2ccccc21 > 76.9 µM
CC1(C)CC(=O)C2=C(C1)OC(=O)C2(NC(=O)c1cccs1)C(F)(F)F (stereo not drawn) > 76.9 µM
CCCCCn1c(=NC(C)=O)c(C#N)cc2c(=O)n3ccccc3nc21 > 76.9 µM
O=S(=O)(c1ccccc1)c1nc(-c2ccco2)oc1N1CCCCCC1 > 76.9 µM
COc1cccc(NC(=O)c2ccccc2SC)c1 > 76.9 µM
